{
  "source": "the RNAGym collection of RNA variant scans (doi:10.1093/nar/gkz1192)",
  "parents": {"B1": {"name": "CPEB3 Ribozyme (parent)", "chain": "UAACAGGGGGCCACAGCAGAAGCGUUCACGUCGCAGCCCCUGUCAGAUUCUGGUGAAUCUGCGAAUUCUGCUGUAUAUCUC"}},
  "note": "Read counts are not given, so values of variants with three or more changes are uncertain.",
  "data": [
    {"variants_of": "B1", "assay": "self-cleavage, relative activity (ratio to wild type); higher = more cleavage; in vitro, sequencing", "how_it_was_run": "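Relative activity compares each variant's cleaved/total read fraction with that of the unmutated ribozyme. To get these fractions, barcoded CPEB3 ribozyme libraries from rounds of error-prone PCR were transcribed with T7 RNA polymerase for 5 hours at 37°C and then given 15 min of DNase I treatment before EDTA was added. The RNAs were reverse transcribed with template switching and sequenced on Illumina, and DNA sequencing linked barcodes to variants. A minimum of 5 reads applied, and three batches were averaged.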", "values": [
      {"variant": "UAACAGGGGGCCACAGCAGAAGCGUUCACGACGCUGCCCCUGCCAGAUUCUGGUGAGUCUGCGAAUUCUGCUGUAUAUCUC", "note": "[U31A A35U U43C A57G]", "self-cleavage": 0.15},
      {"variant": "UAACAGGGGGCCACAGCAGAAGCGUUCACGACGCUGCCCCUGUCAGACCCUGGUGAAUCUGCGAAUUCUGCUGUAUACCUC", "note": "[U31A A35U U48C U49C U78C]", "self-cleavage": 0.12},
      {"variant": "UAACAGGGGGCCACAGCAGAAGCGUUCACGACGCUGCCCCUGUCAGAUCCUGGCGAAACUGCGAAUUCUGCUGUAUAUCUC", "note": "[U31A A35U U49C U54C U58A]", "self-cleavage": 0.06},
      {"variant": "UAACAGGGGGCCACAGCAGAAGCGUUCACGACGCUGCCCCUGUCAGAUUCUGGUGAACCUGCGAUUUCUGCUGUAUAUCUC", "note": "[U31A A35U U58C A65U]", "self-cleavage": 0.18},
      {"variant": "UAACAGGGGGCCACAGCAGAAGCGUUCACGACGCAGCCCCUGUCGGAUCCUGGUGAAUCUGCGAAUUCUGCUGUAUAUCUC", "note": "[U31A A45G U49C]", "self-cleavage": 0.4},
      {"variant": "UAACAGGGGGCCACAGCAGAAGCGUUCACGACGCAGCCCCUGUCGGAUUCAGGUGGGUCUGCGAAUACUGCUGUAUAUCUC", "note": "[U31A A45G U51A A56G A57G U67A]", "self-cleavage": 0.06},
      {"variant": "UAACAGGGGGCCACAGCAGAAGCGUUCACGACGCAGCCCCUGUCGGAUUCUGGUGAAUCUGCGAAUACAGCUGUAUAUCUC", "note": "[U31A A45G U67A U69A]", "self-cleavage": 0.23},
      {"variant": "UAACAGGGGGCCACAGCAGAAGCGUUCACGACGCAGCCCCUGUCUGAUUCUGUUGAAUCCGCGAAUUCUGCUGUAUAUCCC", "note": "[U31A A45U G53U U60C U80C]", "self-cleavage": 0.35},
      {"variant": "UAACAGGGGGCCACAGCAGAAGCGUUCACGACGCAGCCCCUGUCUGAUUCUGGUGAAUCUGCGAAUCCUGCUGUAUAUCUC", "note": "[U31A A45U U67C]", "self-cleavage": 0.12},
      {"variant": "UAACAGGGGGCCACAGCAGAAGCGUUCACGACGCAGCCCCUGUCAGGUUCUGGUGAAUCUGCGAGUCCUGCUGUUUAUCUC", "note": "[U31A A47G A65G U67C A75U]", "self-cleavage": 0.06},
      {"variant": "UAACAGGGGGCCACAGCAGAAGCGUUCACGACGCAGCCCCUGUCAGGUUCUGGUGAAUCUGCGAAUUCUGCUGUAUAUCUU", "note": "[U31A A47G C81U]", "self-cleavage": 0.22},
      {"variant": "UAACAGGGGGCCACAGCAGAAGCGUUCACGACGCAGCCCCUGUCAGGCUCUGGUGAAUCUGCGAAUUCUGCUGUAUAUCUC", "note": "[U31A A47G U48C]", "self-cleavage": 0.26},
      {"variant": "UAACAGGGGGCCACAGCAGAAGCGUUCACGACGCAGCCCCUGUCAGGUACUGGUGAAUCUGCGAAUUCUGCUGUAUAUCUC", "note": "[U31A A47G U49A]", "self-cleavage": 0.15},
      {"variant": "UAACAGGGGGCCACAGCAGAAGCGUUCACGACGCAGCCCCUGUCAGGUGCUGGUGGAUCUGCGAAUUCUGCUGUAUAUCUC", "note": "[U31A A47G U49G A56G]", "self-cleavage": 0.22},
      {"variant": "UAACAGGGGGCCACAGCAGAAGCGUUCACGACGCAGCCCCUGUCAGGUUCUGGUGAAUCUGCGAAUUCCGCCGUAUAUCUC", "note": "[U31A A47G U69C U72C]", "self-cleavage": 0.13},
      {"variant": "UAACAGGGGGCCACAGCAGAAGCGUUCACGACGCAGCCCCUGUCAGGUUCUGGUGAAUCUGCGAAUUCUGCUGUAUACCUC", "note": "[U31A A47G U78C]", "self-cleavage": 0.51},
      {"variant": "UAACAGGGGGCCACAGCAGAAGCGUUCACGACGCAGCCCCUGUCAGUAUCUGGUGAGUCUGCGAAUCCUGCUGUAUAUCUC", "note": "[U31A A47U U48A A57G U67C]", "self-cleavage": 0.37},
      {"variant": "UAACAGGGGGCCACAGCAGAAGCGUUCACGACGCAGCCCCUGUCAGUUACUGGUGAAUCUGCGAUUUCUGCUGUAUACCUC", "note": "[U31A A47U U49A A65U U78C]", "self-cleavage": 0.13},
      {"variant": "UAACAGGGGGCCACAGCAGAAGCGUUCACGACGCAGCCCCUGUCAGUUUCUGGUGAAUCUGCGAAUCCUGCUGUAUACCUC", "note": "[U31A A47U U67C U78C]", "self-cleavage": 0.33},
      {"variant": "UAACAGGGGGCCACAGCAGAAGCGUUCACGACGCAGCCCCUGUCAGAUUCUGGUGGAUCUGCGAAUUAUGCUGUUUAUCUC", "note": "[U31A A56G C68A A75U]", "self-cleavage": 0.15},
      {"variant": "UAACAGGGGGCCACAGCAGAAGCGUUCACGACGCAGCCCCUGUCAGAUUCUGGUGUAUCUGCGAAUACUGCUGUAUAUCUC", "note": "[U31A A56U U67A]", "self-cleavage": 0.14},
      {"variant": "UAACAGGGGGCCACAGCAGAAGCGUUCACGACGCAGCCCCUGUCAGAUUCUGGUGAGUCUGCGGAUUCUGCUGUAUAUCUC", "note": "[U31A A57G A64G]", "self-cleavage": 0.3},
      {"variant": "UAACAGGGGGCCACAGCAGAAGCGUUCACGACGCAGCCCCUGUCAGAUUCUGGUGAGUCUGCGAAUUCUGCUGUAUAUAUC", "note": "[U31A A57G C79A]", "self-cleavage": 0.64},
      {"variant": "UAACAGGGGGCCACAGCAGAAGCGUUCACGACGCAGCCCCUGUCAGAUUCUGGUGAGUCUGCGAAUCCUGCUGUAUAUCUC", "note": "[U31A A57G U67C]", "self-cleavage": 0.17},
      {"variant": "UAACAGGGGGCCACAGCAGAAGCGUUCACGACGCAGCCCCUGUCAGAUUCUGGUGAGUCUGCGAAUUCAGCUGUAUAUCCC", "note": "[U31A A57G U69A U80C]", "self-cleavage": 0.09},
      {"variant": "UAACAGGGGGCCACAGCAGAAGCGUUCACGACGCAGCCCCUGUCAGAUUCUGGUGAUUCUGCGAAUUCUCCUGUAUAUCUC", "note": "[U31A A57U G70C]", "self-cleavage": 0.12},
      {"variant": "UAACAGGGGGCCACAGCAGAAGCGUUCACGACGCAGCCCCUGUCAGAUUCUGGUGAAUCUGCGGAUUCUGCUGUAUACCUC", "note": "[U31A A64G U78C]", "self-cleavage": 0.29},
      {"variant": "UAACAGGGGGCCACAGCAGAAGCGUUCACGACGCAGCCCCUGUCAGAUUCUGGUGAAUCUGCGACUUCUGCAGUAUACCUC", "note": "[U31A A65C U72A U78C]", "self-cleavage": 0.09},
      {"variant": "UAACAGGGGGCCACAGCAGAAGCGUUCACGACGCAGCCCCUGUCAGAUUCUGGUGAAUCUGCGAGUUCUGCCGUAUAUUUC", "note": "[U31A A65G U72C C79U]", "self-cleavage": 0.1},
      {"variant": "UAACAGGGGGCCACAGCAGAAGCGUUCACGACGGAGCCCCCGUCAGAUUCUAGUGAAUCUGCGAAUUCUGCUGUAUAUCUC", "note": "[U31A C34G U41C G52A]", "self-cleavage": 0.09},
      {"variant": "UAACAGGGGGCCACAGCAGAAGCGUUCACGACGGAGCCCCUGUCAGAUUCCGGUGAAUCUGCGAACUCUGCUGUAUAUCUC", "note": "[U31A C34G U51C U66C]", "self-cleavage": 0.09},
      {"variant": "UAACAGGGGGCCACAGCAGAAGCGUUCACGACGUAGCCCCUGUCAGAAGCUGGUGAAUCUGCGAAUUCUGCUGUAUAUCUC", "note": "[U31A C34U U48A U49G]", "self-cleavage": 0.1},
      {"variant": "UAACAGGGGGCCACAGCAGAAGCGUUCACGACGCAGCACCUGUCAGAUUCUGGCGAAUCUGCGAAUUCUGCUGUAUAUCUC", "note": "[U31A C38A U54C]", "self-cleavage": 0.11},
      {"variant": "UAACAGGGGGCCACAGCAGAAGCGUUCACGACGCAGCCACUGUCAGAUUCUGGUGAAUCUGCGAAUUCAGCUGUAUAUCUC", "note": "[U31A C39A U69A]", "self-cleavage": 0.17}
    ]}
  ]
}
